This passage reports enrichment score results from the supplement of paper PMC10369915.

Some of the results follow. Rule as the data show it: active = 3.2 or more and inactive = the rest. Only a few entries rise above the background.
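Also: displayed peptides selected on beads carrying the immobilized SH2 domain, with library peptides lacking any tyrosine serving as negative controls.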

One assay has as its target SHP2 C-SH2 domain E139D. Kind of assay: enrichment score (SH2-bound / input frequency) (ratio); bacterial display of known human phosphotyrosine sites (pTyr-Var adds point mutants) read by sequencing; higher = stronger binding; tyrosines were phosphorylated by kinases first. To be noted: peptide library: pTyr-Var.
As to AGQKDYDRLRP [RAC3_Y64_E62K], the enrichment score is inactive: 0.61.
In the case of RRVLVYGGRGA [QDPR_Y16], the enrichment score is inactive: 0.166.
With KDIENYIQDGK [RAD50_Y964], the enrichment score was inactive: 0.768.
RRVLVYVGRGA [QDPR_Y16_G17V]: the enrichment score was inactive: 0.237.
Still for that read-out and setting: the value for HRDSSYFWEIE [RAF1_Y340_Q335H_YF] was inactive: 0.925.
On to QRDSSYFWEIE [RAF1_Y340_YF], for which the enrichment score is inactive: 0.652.
Take TAPYNYSYIFK [RAB14_Y8]: the enrichment score is inactive: 1.77.
On to PSPTKYSLSPS [RANBP2_Y785_R784K], for which the enrichment score was inactive: 0.626.
On the same count and under the same terms, the value for SEHLIYLEFKS [RASGRP1_Y215_T214I] was inactive: 1.47; that for RGESFYQDTMN [RARS_Y338_R341T] was inactive: 0.602.
As for SKDQICPMKLK [RANBP17_Y823_Y823C], the enrichment score was inactive: 0.936.
Regarding SFLFRYADDSF [RAB3C_Y50], the enrichment score is inactive: 1.39.
Same read-out and setting: with GFILMYDITNK [RAB3C_Y110_E115K] the figure was inactive: 1.07; with HRAVEYLLMGI [RAD23A_Y197_T200M], inactive: 2.82; with GVRLYYRVMES [RB1_Y454], inactive: 0.828.
Same read-out and setting: with TYEPNYGTVKR [RAPGEF6_Y1447_Q1452R] the figure was inactive: 0.552; with AFHGEYIPTVF [RAC2_Y32_P29H], inactive: 0.965; with AFLGEYIPTVF [RAC2_Y32_P29L], inactive: 1.24.
The same measure, in the same setting: with AVSHRYDLGGL [QPRT_Y162_A158V] the figure was inactive: 0.694.

The target in a further assay is SHP2 C-SH2 domain wild-type. The assay is described as above. The conditions noted are these: peptide library: pTyr-Var.
As for AGQKDYDRLRP [RAC3_Y64_E62K], the enrichment score is inactive: 0.562.
Still for that read-out and setting: with RRVLVYGGRGA [QDPR_Y16] the figure was inactive: 0.236; with KDIENYIQDGK [RAD50_Y964], inactive: 0.798.
The same measure, in the same setting: with RRVLVYVGRGA [QDPR_Y16_G17V] the figure was inactive: 0.152; with HRDSSYFWEIE [RAF1_Y340_Q335H_YF], inactive: 1.15.
Still for that read-out and setting: with QRDSSYFWEIE [RAF1_Y340_YF] the figure was inactive: 0.906; with TAPYNYSYIFK [RAB14_Y8], active: 8.72; with PSPTKYSLSPS [RANBP2_Y785_R784K], inactive: 0.604.
SEHLIYLEFKS [RASGRP1_Y215_T214I]: the enrichment score is inactive: 1.47.
The same measure, in the same setting: the value for RGESFYQDTMN [RARS_Y338_R341T] was inactive: 0.602; that for SKDQICPMKLK [RANBP17_Y823_Y823C] was inactive: 0.646.
Take SFLFRYADDSF [RAB3C_Y50]: the enrichment score is inactive: 1.16.
As for GFILMYDITNK [RAB3C_Y110_E115K], the enrichment score was inactive: 0.904.
For the molecule HRAVEYLLMGI [RAD23A_Y197_T200M], the enrichment score was inactive: 2.41.
As for GVRLYYRVMES [RB1_Y454], the enrichment score was inactive: 1.17.
In the case of TYEPNYGTVKR [RAPGEF6_Y1447_Q1452R], the enrichment score was inactive: 0.479.
Take AFHGEYIPTVF [RAC2_Y32_P29H]: the enrichment score was inactive: 1.13.
Still for that read-out and setting: with AFLGEYIPTVF [RAC2_Y32_P29L] the figure was inactive: 1.16.
On the same count and under the same terms, the value for AVSHRYDLGGL [QPRT_Y162_A158V] was inactive: 0.712.

The next assay has as its target SHP2 N-SH2 domain L43F. Described as above. To be noted: peptide library: pTyr-Var.
For the molecule AGQKDYDRLRP [RAC3_Y64_E62K], the enrichment score is inactive: 0.506.
On the same count and under the same terms, with RRVLVYGGRGA [QDPR_Y16] the figure was inactive: 0.211.
As to KDIENYIQDGK [RAD50_Y964], the enrichment score was inactive: 0.728.
Regarding RRVLVYVGRGA [QDPR_Y16_G17V], the enrichment score was inactive: 0.218.
In the case of HRDSSYFWEIE [RAF1_Y340_Q335H_YF], the enrichment score was inactive: 0.718.
The same measure, in the same setting: with QRDSSYFWEIE [RAF1_Y340_YF] the figure was inactive: 0.801; with TAPYNYSYIFK [RAB14_Y8], active: 6.2.
Same read-out and setting: the value for PSPTKYSLSPS [RANBP2_Y785_R784K] was inactive: 0.518; that for SEHLIYLEFKS [RASGRP1_Y215_T214I] was inactive: 1.43; that for RGESFYQDTMN [RARS_Y338_R341T] was inactive: 0.531.
For SKDQICPMKLK [RANBP17_Y823_Y823C], the enrichment score is inactive: 0.842.
SFLFRYADDSF [RAB3C_Y50]: the enrichment score was inactive: 1.27.
As to GFILMYDITNK [RAB3C_Y110_E115K], the enrichment score was inactive: 1.32.
Turning to HRAVEYLLMGI [RAD23A_Y197_T200M], the enrichment score was inactive: 2.81.
Still for that read-out and setting: with GVRLYYRVMES [RB1_Y454] the figure was inactive: 0.971.
With TYEPNYGTVKR [RAPGEF6_Y1447_Q1452R], the enrichment score was inactive: 0.477.
Regarding AFHGEYIPTVF [RAC2_Y32_P29H], the enrichment score was inactive: 1.02.
Take AFLGEYIPTVF [RAC2_Y32_P29L]: the enrichment score is inactive: 1.29.
On to AVSHRYDLGGL [QPRT_Y162_A158V], for which the enrichment score was inactive: 0.825.

Another assay deals with SHP2 N-SH2 domain T42A. The assay is described as above. To be noted: peptide library: pTyr-Var.
Turning to AGQKDYDRLRP [RAC3_Y64_E62K], the enrichment score is inactive: 0.404.
The same measure, in the same setting: with RRVLVYGGRGA [QDPR_Y16] the figure was inactive: 0.203.
Still for that read-out and setting: with KDIENYIQDGK [RAD50_Y964] the figure was inactive: 0.648.
Turning to RRVLVYVGRGA [QDPR_Y16_G17V], the enrichment score is inactive: 0.158.
With HRDSSYFWEIE [RAF1_Y340_Q335H_YF], the enrichment score is inactive: 0.916.
The same measure, in the same setting: with QRDSSYFWEIE [RAF1_Y340_YF] the figure was inactive: 0.555.
Consider TAPYNYSYIFK [RAB14_Y8], for which the enrichment score was active: 20.6.
In the case of PSPTKYSLSPS [RANBP2_Y785_R784K], the enrichment score was inactive: 0.793.
Still for that read-out and setting: the value for SEHLIYLEFKS [RASGRP1_Y215_T214I] was inactive: 1.23; that for RGESFYQDTMN [RARS_Y338_R341T] was inactive: 0.388; that for SKDQICPMKLK [RANBP17_Y823_Y823C] was inactive: 0.875.
Consider SFLFRYADDSF [RAB3C_Y50], for which the enrichment score was inactive: 1.26.
On to GFILMYDITNK [RAB3C_Y110_E115K], for which the enrichment score is inactive: 0.874.
On the same count and under the same terms, with HRAVEYLLMGI [RAD23A_Y197_T200M] the figure was active: 4.11; with GVRLYYRVMES [RB1_Y454], inactive: 0.679; with TYEPNYGTVKR [RAPGEF6_Y1447_Q1452R], inactive: 0.518.
As to AFHGEYIPTVF [RAC2_Y32_P29H], the enrichment score was inactive: 1.08.
Same read-out and setting: with AFLGEYIPTVF [RAC2_Y32_P29L] the figure was inactive: 1.18.
With AVSHRYDLGGL [QPRT_Y162_A158V], the enrichment score is inactive: 0.631.

For the next assay, the target named is SHP2 N-SH2 domain T52S. Described as above. To be noted: peptide library: pTyr-Var.
For the molecule AGQKDYDRLRP [RAC3_Y64_E62K], the enrichment score was inactive: 0.712.
On the same count and under the same terms, with RRVLVYGGRGA [QDPR_Y16] the figure was inactive: 0.255; with KDIENYIQDGK [RAD50_Y964], inactive: 0.71; with RRVLVYVGRGA [QDPR_Y16_G17V], inactive: 0.165.
For HRDSSYFWEIE [RAF1_Y340_Q335H_YF], the enrichment score is inactive: 0.751.
Turning to QRDSSYFWEIE [RAF1_Y340_YF], the enrichment score was inactive: 0.543.
Same read-out and setting: with TAPYNYSYIFK [RAB14_Y8] the figure was inactive: 2.49.
Still for that read-out and setting: the value for PSPTKYSLSPS [RANBP2_Y785_R784K] was inactive: 0.722; that for SEHLIYLEFKS [RASGRP1_Y215_T214I] was inactive: 1.58; that for RGESFYQDTMN [RARS_Y338_R341T] was inactive: 0.523.
Same read-out and setting: the value for SKDQICPMKLK [RANBP17_Y823_Y823C] was inactive: 0.733; that for SFLFRYADDSF [RAB3C_Y50] was inactive: 1.38; that for GFILMYDITNK [RAB3C_Y110_E115K] was inactive: 1.14.
Regarding HRAVEYLLMGI [RAD23A_Y197_T200M], the enrichment score is inactive: 2.84.
On the same count and under the same terms, with GVRLYYRVMES [RB1_Y454] the figure was inactive: 0.818; with TYEPNYGTVKR [RAPGEF6_Y1447_Q1452R], inactive: 0.652; with AFHGEYIPTVF [RAC2_Y32_P29H], inactive: 1.06.
The same measure, in the same setting: the value for AFLGEYIPTVF [RAC2_Y32_P29L] was inactive: 1.39; that for AVSHRYDLGGL [QPRT_Y162_A158V] was inactive: 1.02.

The next assay deals with SHP2 N-SH2 domain wild-type. The assay is described as above. To be noted: peptide library: pTyr-Var.
Consider AGQKDYDRLRP [RAC3_Y64_E62K], for which the enrichment score was inactive: 0.514.
As for RRVLVYGGRGA [QDPR_Y16], the enrichment score was inactive: 0.244.
Same read-out and setting: with KDIENYIQDGK [RAD50_Y964] the figure was inactive: 0.647.
For the molecule RRVLVYVGRGA [QDPR_Y16_G17V], the enrichment score is inactive: 0.233.
With HRDSSYFWEIE [RAF1_Y340_Q335H_YF], the enrichment score is inactive: 0.796.
The same measure, in the same setting: the value for QRDSSYFWEIE [RAF1_Y340_YF] was inactive: 0.49; that for TAPYNYSYIFK [RAB14_Y8] was inactive: 1.6; that for PSPTKYSLSPS [RANBP2_Y785_R784K] was inactive: 0.63.
The same measure, in the same setting: the value for SEHLIYLEFKS [RASGRP1_Y215_T214I] was inactive: 1.42; that for RGESFYQDTMN [RARS_Y338_R341T] was inactive: 0.512; that for SKDQICPMKLK [RANBP17_Y823_Y823C] was inactive: 1.09.
Turning to SFLFRYADDSF [RAB3C_Y50], the enrichment score was inactive: 1.12.
Same read-out and setting: with GFILMYDITNK [RAB3C_Y110_E115K] the figure was inactive: 1.34; with HRAVEYLLMGI [RAD23A_Y197_T200M], inactive: 2.97; with GVRLYYRVMES [RB1_Y454], inactive: 1.1.
On the same count and under the same terms, the value for TYEPNYGTVKR [RAPGEF6_Y1447_Q1452R] was inactive: 0.58; that for AFHGEYIPTVF [RAC2_Y32_P29H] was inactive: 1.09.
With AFLGEYIPTVF [RAC2_Y32_P29L], the enrichment score is inactive: 1.15.
On the same count and under the same terms, the value for AVSHRYDLGGL [QPRT_Y162_A158V] was inactive: 0.758.
